Inhibition data for 21 compounds are collected here from ChEMBL document CHEMBL5606460, “ASAP - DENV-2 NS2B-NS3 protease fluorescence single point” (2024).

In all, about 2,000 compounds went through this assay and about 110 (5.5%) showed an effect of 50% or more. The list shows a part of the results.

The assay addresses Genome polyprotein (dengue virus type 2) (UniProt P29990).
Where [1] appears, read: Thailand/16681/1984, Concentration 25.0 uM, Number of replicates 1.0.

The inhibition is the change of the read-out against control, counted positive when it falls. Regarding `C#CCN(C(=O)C1CCN(c2ccc(C=O)cc2)CC1)[C@@H](C)Cc1ccccc1`, the inhibition under setting [1] was found to be 17.8%.

Consider `CC1(C)C[C@H](NC(=O)c2ccnc3[nH]ncc23)CN(C(=O)c2cnc[nH]2)C1`, for which the inhibition runs as follows: (Thailand/16681/1984, Concentration 49.5 uM, Number of replicates 2.0, Standard deviation 0.9620790197509161 %) -0.928%; (Thailand/16681/1984, Concentration 99.01 uM, Number of replicates 2.0, Standard deviation 3.8232647087452136 %) 0.073%; (Thailand/16681/1984, Concentration 198.0 uM, Number of replicates 2.0, Standard deviation 3.196447673971919 %) 0.543%.

For `O=Cc1ccc(N2CCC(C(=O)N3CCC(c4cccc(Cl)c4)CC3)CC2)cc1`, the inhibition under setting [1] turned out to be 12.1%.

Regarding `N[C@H]1CC[C@@H](NC(=O)[C@@H](NC(=O)OCc2ccccc2)c2ccc(OCc3ccccc3)cc2)C1`, the inhibition is, setting by setting: (Thailand/16681/1984, Concentration 49.5 uM, Number of replicates 2.0, Standard deviation 1.8398540797224316 %) -5.09%; (Thailand/16681/1984, Concentration 99.01 uM, Number of replicates 2.0, Standard deviation 1.5144593357940743 %) -5.38%; (Thailand/16681/1984, Concentration 198.0 uM, Number of replicates 2.0, Standard deviation 1.2299788478893758 %) -0.834%.

Regarding `CCCC[C@H](NC(=O)OC(C)(C)C)C(=O)N[C@H](C(=O)NCc1ccc(C(N)=O)cc1)c1ccc(OCc2ccccc2)cc1`, the inhibition (Thailand/16681/1984, Concentration 49.5 uM, Number of replicates 2.0, Standard deviation 0.5441055304446053 %) is -3.24%; the inhibition (Thailand/16681/1984, Concentration 99.01 uM, Number of replicates 2.0, Standard deviation 1.2410372194636528 %) stood at 12.6%; the inhibition (Thailand/16681/1984, Concentration 198.0 uM, Number of replicates 2.0, Standard deviation 0.08996362825826161 %) came to 97.6%.

As for `CC(C)(CO)NC(=O)c1cc(Cl)cc(NC(=O)Cn2cnccc2=O)c1`, the inhibition (Thailand/16681/1984, Concentration 49.5 uM, Number of replicates 2.0, Standard deviation 0.3718016272993385 %) was -3.9%; the inhibition (Thailand/16681/1984, Concentration 99.01 uM, Number of replicates 2.0, Standard deviation 1.0416819516575477 %) is -5.97%; the inhibition (Thailand/16681/1984, Concentration 198.0 uM, Number of replicates 2.0, Standard deviation 1.29652000519297 %) is -5.4%.

For `O=C(c1cc(Cl)ccc1NS(=O)(=O)c1ccc(Oc2ccccc2Cl)cc1)N1CCC[C@@H]1CO`, the inhibition was 17.2% (Thailand/16681/1984, Concentration 49.5 uM, Number of replicates 2.0, Standard deviation 0.383564644131335 %); 85.5% (Thailand/16681/1984, Concentration 99.01 uM, Number of replicates 2.0, Standard deviation 0.18466388793957156 %); 93.6% (Thailand/16681/1984, Concentration 198.0 uM, Number of replicates 2.0, Standard deviation 0.022248141217142654 %).

With `NCc1ncc(C(=O)Nc2ccccc2N2CCC(CO)CC2)c(C(F)(F)F)n1`, the inhibition runs as follows: (Thailand/16681/1984, Concentration 49.5 uM, Number of replicates 2.0, Standard deviation 1.1543273279104322 %) 2.58%; (Thailand/16681/1984, Concentration 99.01 uM, Number of replicates 2.0, Standard deviation 0.2964400275887672 %) 4.99%; (Thailand/16681/1984, Concentration 198.0 uM, Number of replicates 2.0, Standard deviation 0.14686490832106133 %) 6.91%.

With `Cc1cnccc1NC(=O)c1cc(C2CC2)n(C)c1C`, the inhibition is -1.31% (Thailand/16681/1984, Concentration 49.5 uM, Number of replicates 2.0, Standard deviation 2.6599627573534175 %); 0.05% (Thailand/16681/1984, Concentration 99.01 uM, Number of replicates 2.0, Standard deviation 2.178967369959994 %); 3.32% (Thailand/16681/1984, Concentration 198.0 uM, Number of replicates 2.0, Standard deviation 3.247202341941587 %).

As for `O=Cc1ccc(N2CCC(C(=O)N3CCN(c4ccc(F)cc4F)CC3)CC2)cc1`, the inhibition under setting [1] was 11.4%.

With `CC(C)N(C[C@H](O)COc1ccc(CC(N)=O)cc1)C(=O)C1CCN(c2ccc(C=O)cc2)CC1`, the inhibition under setting [1] worked out at 13.4%.

With `O=Cc1ccc(N2CCC(C(=O)N(Cc3cnn(-c4ccccc4)c3)C3CC3)CC2)cc1`, the inhibition under setting [1] came to 14.3%.

Turning to `O=Cc1ccc(N2CCC(C(=O)NC(c3ccccc3)c3ccccc3)CC2)cc1`, the inhibition under setting [1] was -0.6%.

Turning to `O=Cc1ccc(N2CCC(C(=O)NCc3cc(F)c(F)cc3F)CC2)cc1`, under setting [1], the inhibition amounted to 14.2%.

For the compound `O=Cc1ccc(N2CCC(C(=O)NCc3ccc(C(=O)N4CCCC4)cc3)CC2)cc1`, the inhibition under setting [1] amounted to 15%.

For `O=Cc1ccc(N2CCC(C(=O)N3C[C@@H]4C[C@H]3CN4Cc3ccccc3)CC2)cc1`, the inhibition under setting [1] came out at 13.2%.

As for `Cn1ccnc1[C@H]1CCCN(c2nc(N)nc3[nH]ccc23)C1`, the inhibition (Thailand/16681/1984, Concentration 49.5 uM, Number of replicates 2.0, Standard deviation 1.3833087982807808 %) is -1.02%; the inhibition (Thailand/16681/1984, Concentration 99.01 uM, Number of replicates 2.0, Standard deviation 2.5265541576501263 %) is -0.984%; the inhibition (Thailand/16681/1984, Concentration 198.0 uM, Number of replicates 2.0, Standard deviation 1.980296651267403 %) is -0.547%.

In the case of `Cc1ccc(NC(=O)C2CCN(c3ccc(C=O)cc3)CC2)c(Br)c1`, the inhibition under setting [1] came to 15.3%.

Regarding `O=Cc1ccc(N2CCC(C(=O)Nc3c(F)cc(Br)cc3F)CC2)cc1`, the inhibition under setting [1] worked out at 11.1%.

For `COC(=O)c1c[nH]c(-c2ccccc2C(=O)Nc2cnn(C)c2)c1`, the inhibition is, setting by setting: (Thailand/16681/1984, Concentration 49.5 uM, Number of replicates 2.0, Standard deviation 4.6959836114984075 %) -3.99%; (Thailand/16681/1984, Concentration 99.01 uM, Number of replicates 2.0, Standard deviation 3.634509710514387 %) -4.57%; (Thailand/16681/1984, Concentration 198.0 uM, Number of replicates 2.0, Standard deviation 4.5675250537856 %) -3.67%.

Turning to `C[C@@H](NC(=O)c1cc(Cl)ccc1NS(=O)(=O)c1ccc(Oc2ccccc2Cl)cc1)[C@H]1CCCO1`, the inhibition (Thailand/16681/1984, Concentration 49.5 uM, Number of replicates 2.0, Standard deviation 0.29635236214386457 %) amounted to 82.5%; the inhibition (Thailand/16681/1984, Concentration 99.01 uM, Number of replicates 2.0, Standard deviation 0.052507555399236044 %) turned out to be 84.4%; the inhibition (Thailand/16681/1984, Concentration 198.0 uM, Number of replicates 2.0, Standard deviation 0.13838732262418607 %) worked out at 80.7%.
